In the supplement of paper PMC3334620:
The full ranking holds about 33,000 sequences; the median of “E-score (-0.5 to 0.5)” is about -0.011, and the highest 2% start at about 0.28. Some of the results follow.

Target: T1, Gcr1 (UniProt P07261)
T1 sequence: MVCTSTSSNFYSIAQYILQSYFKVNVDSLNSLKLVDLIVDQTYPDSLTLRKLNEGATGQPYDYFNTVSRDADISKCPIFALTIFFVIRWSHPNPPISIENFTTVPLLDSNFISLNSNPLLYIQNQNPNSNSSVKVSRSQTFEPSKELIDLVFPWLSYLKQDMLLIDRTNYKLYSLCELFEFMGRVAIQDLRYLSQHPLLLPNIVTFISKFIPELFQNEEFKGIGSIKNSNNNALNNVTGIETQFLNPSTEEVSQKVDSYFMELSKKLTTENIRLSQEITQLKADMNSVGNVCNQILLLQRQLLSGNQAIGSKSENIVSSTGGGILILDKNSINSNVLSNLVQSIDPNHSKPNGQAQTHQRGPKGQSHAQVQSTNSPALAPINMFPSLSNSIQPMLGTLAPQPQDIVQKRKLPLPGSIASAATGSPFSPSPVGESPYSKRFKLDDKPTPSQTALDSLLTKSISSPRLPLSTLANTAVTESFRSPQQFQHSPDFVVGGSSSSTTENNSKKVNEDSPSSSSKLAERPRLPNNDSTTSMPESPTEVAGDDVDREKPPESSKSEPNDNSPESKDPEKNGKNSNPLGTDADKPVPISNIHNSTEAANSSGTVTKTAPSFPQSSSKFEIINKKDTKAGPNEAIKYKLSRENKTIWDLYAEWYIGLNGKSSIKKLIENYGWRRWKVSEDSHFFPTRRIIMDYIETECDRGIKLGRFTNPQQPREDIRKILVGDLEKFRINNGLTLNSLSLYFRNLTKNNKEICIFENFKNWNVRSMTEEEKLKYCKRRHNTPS
Experiment: PBM E-score (8-mer binding enrichment) (E-score (-0.5 to 0.5)); higher = stronger / more preferred TF binding; most listed sequences are background and not binding sites
Conditions: protein concentration: 100 nM; construct: GST-full length
Method: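 Universal 'all 10-mer' protein binding microarrays (Agilent AMADID 015681) probed with GST-tagged S. cerevisiae TFs (full-length or DBD) made by in vitro transcription/translation (PURExpress), about 100-200 nM. Bound TF was detected with fluorescent anti-GST. Each ungapped 8-mer (which stands for itself and its reverse complement) is scored by the PBM enrichment score (E-score), a modified Wilcoxon-Mann-Whitney statistic from -0.5 to +0.5, computed with the Universal PBM Analysis Suite. Scale: above 0.35 generally sequence-specific binding.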

| Sequence | PBM E-score |
| --- | --- |
| ACTGTACT | -0.212 |
| AAGGTCAG | -0.202 |
| AGTCCGCG | -0.142 |
| GAGTGAGC | -0.176 |
| CGAGGGAA | -0.106 |
| CTATTGGC | 0.0102 |
| GGGAACAA | 0.0985 |
| CCAACTCC | 0.121 |
| AATTGAGC | 0.0687 |
| CGGGTTAG | -0.0116 |
| CCCACGAC | -0.112 |
| TCGGGGAA | 0.0604 |
| ACGAAGAT | 0.00119 |
| ACACTGTC | -0.139 |
| CGCATAGC | -0.245 |
| ACATCTTA | 0.0989 |
| AATTTCAC | 0.123 |
| ACTCGTCT | 0.126 |
| AAGCACTC | 0.0181 |
| GCGGAGCA | -0.203 |
| GGACATCC | 0.153 |
| CCAAAGGG | 0.00225 |
| ACAGCAGA | -0.0557 |
| CCTTGCGC | -0.243 |
| CCTACACG | -0.0394 |

| Sequence | PBM E-score |
| --- | --- |
| CAGGGGGA | -0.17 |
| GAGTCTAC | 0.0134 |
| ATGTTGAC | 0.0197 |
| AAAGCTTC | 0.109 |
| ATATCGAT | -0.0374 |
| CTATGCTA | -0.075 |
| TTAATGAA | 0.101 |
| CTATCAAC | 0.128 |
| GCTTCCCA | 0.386 |
| ACCAGTCA | 0.0136 |
| ATAAATTA | 0.165 |
| CACCATAC | 0.0726 |
| GTTGACGA | -0.0625 |
| GTTTACTA | -0.0663 |
| GGCGTTTA | 0.0877 |
| TACACCCA | -0.0699 |
| CAAATTTG | 0.144 |
| GTTTCTAA | 0.222 |
| CAGTGCAA | -0.127 |
| AAGTTAAC | -0.0179 |
| ACTATCTC | 0.00812 |
| CGTATGTC | -0.0106 |
| CAACTCTC | -0.063 |
| CCAATCCC | 0.0645 |
| GAAGTGCC | -0.0199 |

| Sequence | PBM E-score |
| --- | --- |
| AAGGAACA | 0.105 |
| AATGGCCG | -0.111 |
| ATATCGTG | -0.0226 |
| CTCTCGTC | -0.223 |
| CGCACATC | -0.114 |
| ACTTTCCA | 0.194 |
| CATTTAGA | 0.00276 |
| CTCAGAGA | 0.113 |
| TGGTTAAA | 0.0695 |
| TATGCATA | -0.268 |
| ATTCGGCC | -0.123 |
| GTCATCCA | -0.0788 |
| GGGATTAC | -0.0964 |
| ATAAATGC | -0.0522 |
| CTTGTGCC | -0.101 |
| ACCTTTCT | 0.0734 |
| CCTCTACC | 0.0885 |
| ATAATTAT | 0.297 |
| AGGACCCT | -0.0554 |
| AGACACAA | -0.0361 |
| CGTAAAAA | 0.0304 |
| ATGCTTTG | -0.0656 |
| GTGAATAA | 0.15 |
| ACACTGCC | -0.14 |
| ATTGGGAC | 0.102 |

| Sequence | PBM E-score |
| --- | --- |
| CTCACGGA | -0.172 |
| ATCAACCG | -0.0815 |
| CCCCAGGC | -0.0575 |
| ATTGTATC | -0.00275 |
| ACAGAGGG | -0.00914 |
| TGTCTGAA | 0.00309 |
| ACGAGCTC | -0.222 |
| GATACCAC | 0.329 |
| AGATATAG | 0.12 |
| AGGTCTAG | -0.0363 |
| CATAGCAG | -0.167 |
| GGTCGACA | -0.239 |
| ACGCGAGT | -0.0728 |
| AAGCTTCT | 0.184 |
| AGTTTTCA | -0.098 |
| AGGATGGG | -0.0941 |
| AAGCAAAC | 0.0745 |
| CACAAGAA | 0.275 |
| GGGATACC | 0.227 |
| ATAGTGTA | -0.0657 |
| CAATGAAA | 0.156 |
| AACTCAGC | -0.091 |
| CGTAGGGA | -0.0104 |
| AACATTGC | 0.00632 |
| CCTCCCCA | 0.149 |

| Sequence | PBM E-score |
| --- | --- |
| AGTAACCG | 0.184 |
| CGTTGGAA | 0.0447 |
| AACGTACC | 0.0266 |
| AAAGAACG | -0.125 |
| CTTTGTAA | -0.091 |
| GAGCCGGA | 0.19 |
| AGCAAGGG | -0.0882 |
| ACGGACAG | -0.142 |
| ACCATTCC | -0.0317 |
| GGGGCGAA | -0.05 |
| TACGTATA | 0.169 |
| AAGGGACA | -0.23 |
| GGCTTACA | -0.00306 |
| GGATGGCA | -0.167 |
| AGAGTATC | -0.144 |
| TGTCCTAA | 0.0459 |
| GAAGCTAC | 0.323 |
| AAATACCA | 0.0248 |
| AAAGCAAT | -0.0683 |
| AACACAAC | 0.0425 |
| ACAACTCT | 0.174 |
| ACAACTGA | 0.0452 |
| GCCCTCCA | -0.163 |
| ATCTACCC | 0.024 |
| CCATTACG | 0.00447 |

| Sequence | PBM E-score |
| --- | --- |
| CACCCCCG | -0.0584 |
| CCCACACG | 0.155 |
| AGGTTTTG | -0.257 |
| ACCGGTGA | -0.0706 |
| ATTGTGTG | -0.126 |
| ACCTCCGA | -0.214 |
| ACTGTGCG | -0.119 |
| GCCGAGTA | 0.115 |
| CCTGTATC | 0.324 |
| ATCCAACA | 0.119 |
| ATCTAAGC | -0.141 |
| AGATCAAC | -0.00727 |
| AGGTACCA | 0.0906 |
| ATGTTGCG | -0.00581 |
| CATACTAG | 0.0727 |
| GCTTTCAC | -0.0543 |
| ACTTCCAC | 0.261 |
| ATGGTGTG | -0.112 |
| AACGGGGG | -0.182 |
| ACGAGGCC | -0.24 |
| CCGAAGCG | 0.02 |
| AAGGGAAA | 0.0151 |
| ACCAGACG | 0.0328 |
| ATACCAGA | 0.0953 |
| GGTGCAAA | 0.105 |

| Sequence | PBM E-score |
| --- | --- |
| GGGCCGGA | 0.0959 |
| AGTATGGA | -0.0287 |
| CACGATGA | -0.0325 |
| AGCCCGTG | -0.0206 |
| ATGGCGAG | -0.255 |
| CAGCCGTA | -0.217 |
| ACGTACGA | -0.188 |
| CAGTAGCA | 0.0517 |
| GATTGAGC | 0.122 |
| ACCCTCCT | -0.0533 |
| AATCAGGC | 0.125 |
| GTTAAAGA | -0.0184 |
| AGTAAGAA | 0.0422 |
| AAGAGAAA | 0.00997 |
| GAAATTGA | 0.0998 |
| GCTCAACC | 0.104 |
| AGTTATCC | 0.0939 |
| TGCGGGAA | 0.132 |
| CTAGCTGA | -0.105 |
| ACGTGTCC | -0.0547 |
| AACCGCTG | -0.178 |
| AATACCAG | 0.051 |
